Source: PubChem BioAssay AID651820 (National Center for Advancing Translational Sciences (NCATS), 2012)
The campaign covered roughly 340,000 compounds. About 12,000 (3.5%) were called active. The shares of active, inactive and inconclusive entries below differ from those in the screen. Calls follow the shape of the dose curve; as a rule, active = well fitted inhibition curve with a large enough effect; inconclusive = small, poorly fitted or top-dose-only effect, or another doubt; inactive = no such curve, though single readings can be large or run the other way. Potencies of inconclusive entries are left out as doubtful fits.

test: qHTS Assay for Inhibitors of Hepatitis C Virus (HCV); conditions: Huh7.5.1 HCVcc-Cre (HCVcc is cell-culture hepatitis C virus) infection, luciferase reporter, 44 h; activity change, negative = inhibition: at 41.8 µM (top of the series) unless noted
How it was run: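 A cell-based infection assay in which seeded cells (1,000 per well) receive test compound after 4 h, are inoculated with HCVcc-Cre at approximately 0.5 moi, and are incubated 44 h before luminescence detection.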
% is scaled to controls: 0 for no effect and ±100 for the full control effect; potency is read from the fitted curve at half-maximal effect; tags tell the direction and shape of the fitted curve.

Row | SMILES | Potency | activity change, negative = inhibition
1 | CC(C)N(C(=O)N1CCC(c2nc(-c3ccncc3)no2)CC1)C(C)C | inconclusive [inhibitor, single point] | –
2 | Cn1cccc1C1CCCN1CC(=O)Nc1c(Cl)cc(Cl)cc1Cl (stereo unspecified) | inconclusive [inhibitor, single point] | –
3 | Cc1ccc(CNC(=O)Cn2nnc3ccccc3c2=O)cc1 | – | inactive: 16.4%
4 | O=C(Nc1cccc(-c2csc(-c3ccccc3)n2)c1)c1cccs1 | active: 10 µM | –
5 | Cc1cc(C)nc(N/C(=N\S(=O)(=O)Cc2ccccc2)Nc2ccccc2Br)n1 | – | inactive: -7.44%
6 | Cc1cc(C)c(C)c(OCCn2ccnc2)c1 | inconclusive [inhibitor, partial curve] | –
7 | O=C(CCCN=C1NS(=O)(=O)c2ccccc21)OCC(=O)c1ccc(F)c(F)c1 | inconclusive [inhibitor, single point] | –
8 | O=C(Nc1ccc(Cl)cc1)OC1CN2CCC1CC2 (stereo unspecified) | – | inactive: -22%
9 | COCCOC(=O)C1=C(C)NC(=O)N(C(C)=O)C1c1ccc(Cl)cc1 (stereo unspecified) | – | inactive: -3.62%
10 | CCSc1cc(N2CCCC2)nc(-c2ccc(C)cc2)n1 | inconclusive [inhibitor, partial curve, poor fit] | –
11 | COc1cccc(/C=N\NC(=O)c2ccc(Cn3cc(Br)c([N+](=O)[O-])n3)o2)c1O | active: 2.82 µM | –
12 | N#CC1=C(N)N(c2ccc(Oc3ccccc3)cc2)C(=O)C1 | inconclusive [inhibitor, partial curve, poor fit] | –
13 | COc1cccc(Nc2nc(-c3cccnc3)cs2)c1 | inconclusive [inhibitor, single point] | –
14 | Cc1ccc(C)c(N2CCN(CCCNC(=O)Cn3c(=O)c4cccn4c4cccnc43)CC2)c1 | inconclusive [inhibitor, partial curve] | –
15 | Cc1ccc(Cn2nnc3c(=O)n(CC(=O)OCc4ccccc4)cnc32)cc1 | – | inactive: 14.7%
16 | Cc1cc(=O)[nH]c(N/N=C/c2sccc2C)n1 | – | inactive: 11%
17 | O=C(O)c1cccc2c1C(=O)c1ccc(-c3ccc(F)cc3OCc3ccccc3)cc1S2(=O)=O | – | inactive: -6.44% [at 8.37 µM]
18 | Cn1c(=O)oc2cc(S(=O)(=O)NCCC(=O)N3CCN(c4ccccc4)CC3)ccc21 | – | inactive: 3.64%
19 | COc1cc(/C=C(/C#N)c2nc3ccccc3[nH]2)ccc1OC(=O)c1ccco1 | inconclusive [inhibitor, partial curve, poor fit] | –
20 | COc1ccccc1-c1ccc(SCc2cccc(F)c2)nn1 | inconclusive [inhibitor, partial curve, poor fit] | –
21 | CCC(C)n1c(SCC(=O)Nc2cc(C)on2)nc2ccccc2c1=O (stereo unspecified) | inconclusive [inhibitor, single point] | –
22 | Cc1ccc(Cn2ccc(NC(=O)c3cc(-c4ccc(F)cc4)on3)n2)cc1 | – | inactive: 14.4%
23 | CC1CCCCN1CCCNC(=O)Cn1ncc2c([nH]c3ccccc32)c1=O (stereo unspecified) | – | inactive: 12.5%

Row | SMILES | Potency | activity change, negative = inhibition
24 | COc1ccc(C(=O)NC(=S)N2CCCc3ccccc32)cc1OC | inconclusive [inhibitor, partial curve] | –
25 | COC(=O)c1sccc1NC(=O)c1ccc2c(c1)OCO2 | – | inactive: -1.76%
26 | O=C(COc1ccc(S(=O)(=O)N2CCOCC2)cc1)Nc1ccc(Br)cc1 | active: 10 µM | –
27 | O=S(=O)(NC1c2cccc3cccc(c23)C1N1CCN(CCO)CC1)c1ccccc1 (stereo unspecified) | inconclusive [inhibitor, single point] | –
28 | COc1cccc(Oc2nc(-c3ccncc3)nc3ccccc23)c1 | inconclusive [inhibitor, full curve] | –
29 | CC(=O)Nc1ccccc1NC(=O)c1cccc2ccccc12 | – | inactive: -0.754%
30 | CCOc1ccccc1N(CC)C(=O)c1nn(C)c2c1CSc1ccccc1-2 | inconclusive [inhibitor, single point] | –
31 | CC(C)c1ccc(NC(=O)c2cc(S(=O)(=O)NCC3COc4ccccc4O3)ccc2F)cc1 (stereo unspecified) | inconclusive [inhibitor, single point] | –
32 | COc1ccc(N2CCN(S(=O)(=O)c3cc4c5c(c3)C(C)C(=O)N5CCC4)CC2)cc1 (stereo unspecified) | – | inactive: 0.733% [at 8.37 µM]
33 | CCOc1ccccc1/C=C/c1onc(C)c1S(=O)(=O)N1CCC(C(=O)N(CC)CC)CC1 | inconclusive [inhibitor, partial curve, poor fit] | –
34 | Nc1nnc(-c2cn(-c3ccccc3)nc2-c2ccc(Cl)cc2)o1 | – | inactive: -21.9%
35 | O=C(CN1CCCCC1)Nc1ccc(Br)cc1[N+](=O)[O-] | inconclusive [inhibitor, single point] | –
36 | Cc1ccc(S(=O)(=O)NCCSc2nnnn2-c2cc(C)ccc2C)cc1 | inconclusive [inhibitor, full curve] | –
37 | COc1ccc(NC(=O)Cc2csc(NC(=O)Nc3ccccc3OC)n2)c(OC)c1 | – | inactive: -28.4%
38 | COC(=O)C1=C(C)N(Cc2ccc(C)cc2)C(=O)/C1=C\c1ccc(O)c(OC)c1 | – | inactive: -6%
39 | COc1cc(/C=C2\SC(c3ccc(C)cc3)=NC2=O)cc(OC)c1OC | inconclusive [inhibitor, partial curve, poor fit] | –
40 | Cn1c(N2CCCCC2)nc2c1c(=O)[nH]c(=O)n2C | – | inactive: -1.13%
41 | COc1ccc2c(Cl)c(C(=O)NN3CCN(C)CC3)sc2c1 | inconclusive [inhibitor, partial curve] | –
42 | CCOC(=O)c1cnc2cc(Cl)c(OC)cc2c1NCC1CCCO1 (stereo unspecified) | inconclusive [inhibitor, partial curve] | –
43 | Cc1c(Cl)ccc2c(C(=O)NCCN3CCCCC3)cc(-c3ccccn3)nc12 | active: 5.62 µM | –
44 | Clc1cccc(-c2nc(NCCCN3CCOCC3)c3ccccc3n2)c1 | inconclusive [inhibitor, single point] | –
45 | CN1CCN(c2ccccc2NC(=O)c2cccc(OCc3ccccc3)c2)CC1 | inconclusive [inhibitor, single point] | –
46 | COc1cc2c(cc1NC(=O)CSc1nnc(COc3ccc(Cl)cc3)n1C)oc1ccccc12 | active: 6.31 µM | –
